Results published in PubChem BioAssay AID488969 (Vanderbilt High Throughput Screening Facility, 2010).
In all, about 110,000 compounds were measured (“z-score”: median about -0.1, highest 2% from about 2 on). This is one part of the list. Calls of active or inactive are those of the source.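 How the source made its calls: active means z-score in the third read window above 3 or below -3; inactive means the rest.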

biological target: Metabotropic glutamate receptor 8 (Rattus norvegicus) (UniProt P70579); assay: mGluR8 Gi/Go-coupled signaling modulation – cell-based, rat, thallium flux, HTS, primary screen (AID 488969); conditions: HEK293 rat mGluR8, GIRK (G protein-gated inwardly rectifying potassium channel) thallium flux, FluoZin2; at 10 µM; stronger effect = higher value; submaximal glutamate (EC20) added with thallium
Chain of UniProt P70579 (P70579 whole entry, looked up): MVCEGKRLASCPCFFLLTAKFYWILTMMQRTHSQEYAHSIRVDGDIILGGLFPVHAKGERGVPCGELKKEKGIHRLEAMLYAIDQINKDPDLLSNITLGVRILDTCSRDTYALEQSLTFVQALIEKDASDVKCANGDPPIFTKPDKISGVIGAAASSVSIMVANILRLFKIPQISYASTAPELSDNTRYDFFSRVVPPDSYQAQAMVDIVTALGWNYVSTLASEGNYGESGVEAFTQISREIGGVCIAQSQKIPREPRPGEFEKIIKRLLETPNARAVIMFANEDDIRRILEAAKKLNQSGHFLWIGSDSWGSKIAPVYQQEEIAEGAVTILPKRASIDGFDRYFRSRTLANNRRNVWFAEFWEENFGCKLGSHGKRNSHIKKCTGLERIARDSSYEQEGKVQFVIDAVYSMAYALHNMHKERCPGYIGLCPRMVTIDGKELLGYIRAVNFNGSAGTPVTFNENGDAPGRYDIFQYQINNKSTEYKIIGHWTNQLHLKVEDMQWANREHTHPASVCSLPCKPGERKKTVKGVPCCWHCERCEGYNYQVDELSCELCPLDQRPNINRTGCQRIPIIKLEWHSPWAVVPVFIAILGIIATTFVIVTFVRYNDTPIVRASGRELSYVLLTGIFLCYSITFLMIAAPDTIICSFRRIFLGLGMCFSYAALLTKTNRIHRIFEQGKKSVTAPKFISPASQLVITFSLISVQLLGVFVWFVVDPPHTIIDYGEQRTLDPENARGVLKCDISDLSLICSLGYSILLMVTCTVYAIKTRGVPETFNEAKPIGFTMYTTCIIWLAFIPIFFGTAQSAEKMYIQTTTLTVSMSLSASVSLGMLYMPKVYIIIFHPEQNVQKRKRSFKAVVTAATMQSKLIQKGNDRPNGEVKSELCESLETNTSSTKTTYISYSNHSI

SMILES	z-score
CCCc1cc(Nc2cccc(OCC)c2)n2ncnc2n1	-1.68
O=C(Nc1ccon1)c1csc2ccccc12	0.337
CCN(CC)c1nc(Nc2ccccc2)nc(Oc2ccc(C(=O)OC)cc2)n1	-0.0347
Cc1ccc(-n2c(Cn3nc(C(F)F)cc3C(F)F)n[nH]c2=S)cc1	-0.51
Fc1ccccc1-n1[nH]nnc1=S	0.115
COc1cccc(-c2nc(CS(=O)CC(=O)NCCCOC(C)C)c(C)o2)c1 (stereo unspecified)	0.567
COc1ccc([N+](=O)[O-])cc1NC(=O)CSc1nc(C)cc(C)n1	-0.947
CC(/C=N/NC(=O)Cc1cccs1)=C\c1ccco1	-0.15
COc1ccc(-n2nnnc2SCC(=O)N2CCCc3ccccc32)cc1OC	-0.51
CC(NC(=O)CN1CCc2ccccc21)c1ccccc1 (stereo unspecified)	-0.323
CCC(Oc1ccccc1)C(=O)N1CCN(CC)CC1 (stereo unspecified)	-0.239
Cc1cc2cc(C)c3nnc(SCC(=O)N4CCc5ccccc54)n3c2cc1C	-0.31
CC(=O)N(c1cccc(C)c1)C1SC(=O)N(c2ccccc2)C1=O (stereo unspecified)	0.416
Cc1cc(NS(=O)(=O)c2ccc(NC(=O)CCCOc3ccc(Cl)cc3)cc2)no1	-0.247
Cc1ccc(-c2noc(CN3CCN(C(c4ccccc4)c4ccccc4)CC3)n2)cc1	0.316
Cc1ccc(-n2c(C)cc(/C([O-])=C(/C(=S)Nc3ccc(F)c(Cl)c3)[n+]3ccccc3)c2C)cc1	-0.212
COC(=O)C1=C(C(C)=O)C(c2ccc(C(=O)OC)cc2)n2nnnc2N1 (stereo unspecified)	-1.83
CCOC(=O)Cn1c(=O)oc2cc(S(=O)(=O)Nc3c(C)cc(C)cc3C)ccc21	-0.223
O=C(COC(=O)COc1ccc2ccccc2c1)NC1CCCc2ccccc21 (stereo unspecified)	-0.394
COc1cccc(C2C(C(C)=O)=C(O)C(=O)N2Cc2ccco2)c1 (stereo unspecified)	-1.61
CC(=O)/C(=N\Nc1ccc(Cl)cc1Cl)Sc1cccc2cccnc12	2.29
COc1ccc(Cl)cc1N1CC(C(=O)Nc2nccs2)CC1=O (stereo unspecified)	0.39
CCN(C(=O)c1cccnc1)c1ccccc1	0.884

SMILES	z-score
CC(C)(C)C(=O)CCN1C(=O)C2(OCCO2)c2ccccc21	-0.199
CC(/C=C1\N=C(SCc2ccccc2Cl)SC1=O)=C\c1ccccc1	-0.198
COc1ccc(NC(=S)Nc2cccc(S(=O)(=O)N3CCCCC3)c2)cc1	0.241
CNC(=O)c1sc(N2N=C3/C(=C/c4ccccc4)CCCC3C2c2ccccc2)nc1C (stereo unspecified)	-0.962
O=c1cc(O)nc(SCc2ccccc2)[nH]1	-0.338
Cc1ccc(NC(=O)COC(=O)c2cc(Cl)ccc2Cl)c(Br)c1	-0.302
O=C(NCCc1ccccc1)C1CCCN(S(=O)(=O)c2cccc3nsnc23)C1 (stereo unspecified)	-0.252
Cc1ccc(Sc2nc3c(c(=O)[nH]c(=O)n3C)n2CCc2ccccc2)cc1	-0.371
CC(/C=N/n1c(COc2ccccc2)n[nH]c1=S)=C\c1ccccc1	1.93
O=S(=O)(c1ccc(Cl)cc1)N1CCN(C(=S)Nc2ccc(F)c(Cl)c2)CC1	0.862
CC1(C)Cc2ccccc2C(=O)N1	0.0959
COc1ccc(NC(=O)CSC2=C(C#N)C(c3ccco3)C3=C(CCCC3=O)N2)c(OC)c1 (stereo unspecified)	-1.4
O=C(Nc1cccc(C(F)(F)F)c1)c1ccc(Cn2cc(Br)cn2)o1	-0.835
CN1CC(=O)N(CC(=O)NCCc2ccc(F)cc2)c2ccccc2C1=O	-0.0409
COc1ccccc1NC(=O)c1ccc(NS(=O)(=O)c2ccc(F)c(F)c2F)cc1	-0.258
Fc1ccc(C2=Nn3c(Cc4ccccc4)nnc3SC2)cc1	-0.438
Cc1ccc2nc(N3CCN(c4cccc(C)c4C)CC3)c3nnnn3c2c1	-0.0475
N#Cc1c(N)oc(-c2ccc3c(c2)OCO3)c1-c1ccc2c(c1)OCO2	-0.0135
CCCn1c2ccccc2c2cc(C(=O)O)ccc21	0.126
CCn1c(SCC(=O)N/N=C/C(C)=C\c2ccco2)nnc1-c1ccccc1	0.0929
O=C(CC1(O)C(=O)Nc2ccccc21)c1cccnc1 (stereo unspecified)	-0.0715
O=c1c2ccccc2c(-c2ccccc2)nn1Cc1ccc(Cl)cc1	-0.152
COc1ccc(C(CC(=O)O)NC(=O)COc2ccccc2)cc1 (stereo unspecified)	0.766

SMILES	z-score
COc1ccc(Cc2nnc(N/N=C/c3ccc(O)cc3O)[nH]c2=O)cc1OC	-0.455
CC(C)c1ccc(NC(=S)NN2CCOCC2)cc1	-0.0759
Cc1ccc(C)c(C(=O)COC(=O)c2ccc(Br)o2)c1	-0.691
COCCn1c(C)cc(C(=O)COC(=O)CCN2C(=O)c3ccccc3C2=O)c1C	-0.155
Cc1nn(Cc2ccc(F)cc2)c(C)c1NC(=O)c1cnn2c1NC(c1cccs1)CC2C(F)(F)F (stereo unspecified)	-0.699
CC(=O)C1=C(O)C(=O)N(c2ccc(S(N)(=O)=O)cc2)C1c1ccccc1F (stereo unspecified)	0.472
COc1ccc2nc(N3C(=O)CC(C(C)c4ccccc4)C3=O)sc2c1 (stereo unspecified)	-0.143
COC(=O)c1sccc1NC(=O)CSc1ccccc1NS(=O)(=O)c1cc(Cl)ccc1Cl	active: 8.63
COC(=O)c1cc(NC(=O)CC2C(=O)NCCN2C(=O)c2ccc(F)cc2)cc(C(=O)OC)c1 (stereo unspecified)	-0.116
Cc1ccc(NS(=O)(=O)c2ccc(CCC(=O)NC3CC3)cc2)cc1	-0.364
CCN(CC)CCNC(=O)c1ccc2c(=O)n(C3CCCC3)c(=S)[nH]c2c1	0.125
COc1cc(NC(=O)Cn2c(C)cc3ccccc3c2=O)cc(OC)c1OC	0.368
CCCCCC(=O)N1CCN(CCN=CC2=C(O)CC(c3ccc(OC)c(OC)c3)CC2=O)CC1 (stereo unspecified)	0.026
COC(=O)C1=C(C)N(C)C(C)=C(C(=O)OC)C1c1ccc(F)c(Br)c1	-0.957
O=C(NCc1ccncc1)C1CCCCC1	0.039
COC(=O)c1ccccc1NC(=O)N1c2ccccc2Sc2ccccc21	0.97
Cc1ccc2c(CSc3nncs3)cc(=O)oc2c1	-0.00941
Cc1nc(N2CCOCC2)c(C#N)c2c1COC(C)(C)C2	-0.387
CC(C)Cc1nc(N2CCN(C(=O)c3ccccc3)CC2)c(C#N)c2c1CCC2	0.457
O=C1NCC(O)=C1C=NC12CC3CC(CC(C3)C1)C2	0.378
CCN(CC)c1ccc(/C=C(\C#N)C(=O)NCc2ccccc2)cc1	-0.155
COC(=O)c1ccccc1NC1CC(=O)N(c2c(C)cccc2C)C1=O (stereo unspecified)	-0.474
CC1CCc2sc3c(c2C1)c1ncnn1c(=O)n3CC(=O)c1ccc(Br)cc1 (stereo unspecified)	-0.357

SMILES	z-score
Cc1cccc(N2CCN(C(=O)c3cc4ccccc4oc3=O)CC2)c1C	-0.171
CC1CCCN(S(=O)(=O)c2cc(Cl)ccc2Cl)C1 (stereo unspecified)	0.0758
Cc1c(CN(C)C)c2c(n1Cc1ccccc1)C(=O)c1ccccc1-2	1.29
O=C(NNC1=Nc2cccc3cccc1c23)c1ccccc1Br	-0.176
COc1cc(C(=O)NNC(=O)c2ccc(S(=O)(=O)N3CCCCC3)cc2)cc(OC)c1OC	-0.0227
CC(=O)Nc1ccc(S(=O)(=O)Nc2ccc(S(=O)(=O)N3CCCC3)cc2)cc1	0.105
O=C(c1ncn[nH]1)N1CCN(c2nc(-c3ccccc3)cs2)CC1	-0.0847
O=C(NNS(=O)(=O)c1ccc2ccccc2c1)c1cccs1	-0.0652
O=C(NCC1(c2ccccc2)CCCC1)c1ccccc1Br	-1.2
COc1ccc(C(=O)N/N=C(\c2ccccc2)c2ccccn2)cc1	-0.109
CCCOC(=O)c1ccc(NC(=O)C2CCCO2)cc1 (stereo unspecified)	0.526
Cc1ccccc1-n1nc(C)c2cc(C(=O)N3CCOCC3)sc21	0.691
CCOC(=O)c1ccccc1N1C(=O)CSC1=S	-0.0781
Cn1c(=O)c2c(nc(N3CCOCC3)n2CCCNC2=NCCC2)n(C)c1=O	-0.611
O=C(Nc1ccc(N2CCOCC2)c(C(=O)O)c1)c1ccco1	-0.242
COc1ccc(C(=O)Nc2cc(C(F)(F)F)ccc2-n2cncn2)cc1	-1.48
O=C(Cn1cc([N+](=O)[O-])cn1)Nc1ccc(Cn2cc(Br)cn2)cc1	-0.16
Oc1ccc(/C=N/Nc2nccnc2Cl)c(O)c1	-0.352
CCOC(=O)C1=C(C)Nc2ncnn2C1/C=C/c1ccccc1 (stereo unspecified)	-0.259
Cc1ccc(N2C(=O)CSC23C(=O)Nc2ccccc23)cc1 (stereo unspecified)	-0.314
COC(=O)c1cc(C(=O)OC)cc(N2C(=O)CC(NNC(=O)c3ccccc3Br)C2=O)c1 (stereo unspecified)	-0.097
N#Cc1nc(COc2ccc(Br)cc2)oc1NCCN1CCOCC1	-0.364
COC(=O)c1cc2occc2n1Cc1ccc(Cl)cc1	0.19

SMILES	z-score
COc1ccc(NCc2cc3ccccc3[nH]c2=O)cc1	-0.457
O=C(Nc1ccccc1)c1ccsc1	-0.247
Cc1csc(NC(=O)Cc2coc3cc(C)c(C(C)C)cc23)n1	0.437
CSCCC(Nc1ncnc2ccc(Br)cc12)C(=O)O (stereo unspecified)	1.43
O=C(NC(CO)(CO)CO)c1coc(=O)c(Br)c1	0.253
O=C(/C=C/c1ccc(OCc2ccccc2)c(OCc2ccccc2)c1)c1cccnc1	0.691
COC(=O)c1cc(NC(=O)C2CC2)cc(C(=O)OC)c1	0.0071
COc1ccc2oc(=N)c(C(=O)Nc3ccccc3)cc2c1	-0.165
CN1CCCN(CC(O)COCc2cccs2)CC1 (stereo unspecified)	0.644
Cc1ccccc1C(=O)Nc1nnc(-c2ccc(C(C)(C)C)cc2)s1	-0.00498
O=C(NCc1ccc2c(c1)OCO2)c1ccc(N2CCCC2=O)cc1	-0.129
CCOC(=O)CSC1=Nc2ccccc2C2=NC(CC(=O)NCc3ccc(OC)cc3)C(=O)N12 (stereo unspecified)	0.556
CC(C)(C)C1CCC(=NNS(=O)(=O)c2ccc(Br)cc2)CC1 (stereo unspecified)	0.0546
CCOc1ccc(Cl)cc1S(=O)(=O)n1nnc2ccccc21	-1.58
Cc1ccc(-c2c(C#N)c(N)n(-c3ccccc3)c(=O)c2C#N)cc1	-0.595
Cc1ccc(NC(=O)C2CCN(S(=O)(=O)c3c(C)n[nH]c3C)CC2)nc1	0.0104
Cn1c(NC(=O)C2CCCC2)cc(=O)n(C)c1=O	0.268
O=C(O)CCc1ccc(-c2cccs2)n1NC(=O)c1ccc(O)cc1	0.204
Cc1nc(SCC(=O)Nc2c(C)n(C)n(-c3ccccc3)c2=O)nc(C)c1C	-0.261
